The other results are listed elsewhere or left out.

Data on 88 sequences can be found in the supplement of paper PMC11417369.

This assay relates to PF3D7_0420300 AP2 domain 1 (GST-tagged). Briefly: gcPBM binding intensity (ln(normalized median fluorescence intensity)); higher = stronger DNA binding. The procedure, abridged: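 Binding intensity is the highest Masliner-normalised natural-log median intensity over replicate spots in either probe orientation. To obtain it, GST-tagged P. falciparum DNA-binding domains made in E. coli were incubated for 1 h on an Agilent 4 × 180k array of primer-extended double-stranded 36-bp intergenic genomic probes plus negative controls. Detection used Alexa488 anti-GST antibody with scanning at 488 nm.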
For the sequence “TTGTTTTCTTATTATTACTACAATACTTAAGTCAGA [TGCATGCA_negctrl_site184]”, the “gcPBM binding intensity (ln)” value was 9.1.
As for “TTTTGTTGGATACAAAAATTACAAATTATTTAAAAA [TGCATGCA_negctrl_site532]”, the figure is 8.79; as for “ATTCTTATAACAAGAAGTACAAATATATGTATATAT [XGTACX_site4528]”, 9.1; as for “TTTTTTTTTAAGATGAAGATCAATATATAAATATAT [CACACA_negctrl_site1538]”, 8.69.
Regarding “AGAATATCAAAATAAAGTACATTTATTATATATATG [XGTACX_site7100]”, the “gcPBM binding intensity (ln)” value turned out to be 9.25.
Take “TTTTCTCTCAAAAAATGTACATAATATATATATTTT [XGTACX_site4861]”: the “gcPBM binding intensity (ln)” value came to 9.03.
Regarding “AAAAAAAAAAAACATACACACATACATACCTATATA [CACACA_site6575]”, the “gcPBM binding intensity (ln)” value stood at 9.78.
For “AACATCAATTTATTTTCTTACATTATACGATTCATG [CACACA_negctrl_site1300]”, the “gcPBM binding intensity (ln)” value is 9.17.
As for “AAAAAAAAATCAAAATGTACTTATTTTTATAATAAT [XGTACX_site4712]”, the figure is 9.07; as for “TAATTATGCCAACACACACACACACCCAACTAAAAA [CACACA_site8823]”, 10.2.
Consider “ATGATGTGCAAGAGTAGTACACAATTTTGGGTTTAT [XGTACX_site501]”, for which the “gcPBM binding intensity (ln)” value was found to be 9.25.
Turning to “AAACATAAGAAACACACACACATATATATATATATA [CACACA_site3642]”, the “gcPBM binding intensity (ln)” value worked out at 9.65.
For “CCTTTTTTGTTTTATGCACACCATATAACCAAGGCT [CACACA_site7893]”, the “gcPBM binding intensity (ln)” value is 9.3.
As for “TAAATGTCCTTATTTGCACACACACCCATAAGAAAT [CACACA_site3185]”, the figure is 9.83; as for “ATGTAATGAAACATTGCACACATATAATAATATAAT [CACACA_site8402]”, 9.54.
As for “TATATATAAAAATATACACACACAAATGTATATATA [CACACA_site7956]”, the figure is 9.54; as for “TTTTTATATGCGTATTGTACATTATACATATATATA [XGTACX_site6786]”, 9.23.
The same measure for “CGTATATATAAATACACACACATATATATCTGTAAA [CACACA_site4272]”: 9.66; for “TTAATTTATTTATGCACACATATATAATTACCCATA [CACACA_site682]”: 9.33.
In the case of “AATTAAATTACTTATACACACATAAAATGGGTGTAT [CACACA_site4703]”, the “gcPBM binding intensity (ln)” value came out at 9.35.
The same measure for “AAAAAAAAAAAAAAGCGTACAAATAAAATATATTTA [XGTACX_site7195]”: 9.28; for “TCTTTCAATATTAATGCATGTTAATAATAAATTTTA [TGCATGCA_site448]”: 8.87; for “ATATGTTTTTTTTTTTTTTTTTAATTTGTCATAAAT [CACACA_negctrl_site1208]”: 9.28.
As to “TGAACAATATATAATAGTACATATTTATTTTTTTCT [XGTACX_site4256]”, the “gcPBM binding intensity (ln)” value was determined as 9.13.
As to “TAAAGATGAAATATCACACATATATAAATATATAAA [CACACA_site4580]”, the “gcPBM binding intensity (ln)” value was determined as 9.24.
The same measure for “ATATAAATAAATATATGTACACACACAAATATATAC [XGTACX_site3950]”: 9.91.
As for “TCTTTCTTATTTTAATGATATTTATTCATTCCAGTT [CACACA_negctrl_site1679]”, the figure is 9.28; as for “AGAATTATTCTAAAAACACACAATACAAAAGTGCAT [CACACA_site3004]”, 9.53.
The same measure for ACTTTTACACTTTGATTGCACTACTAAACCAGTTCA: 9.4; for “AATACTAAAACCCATACACACACATATATATAGTAC [CACACA_site9041]”: 10.1.
As to “AAAAAACACGCGCACACACACACACGCGCCCACATA [CACACA_site7106]”, the “gcPBM binding intensity (ln)” value was 10.3.
As for “ATAAAAAAAAATATTTGTACACATATTTATATATTA [XGTACX_site8147]”, the figure is 9.08; as for “AATATTTTTTTTTAAACATGCATATTTGCATTACCC [TGCATGCA_site437]”, 8.98.
As for “TTTACATTTATGTGCACACATTCCATTTGAAAGTAA [CACACA_site1953]”, the figure is 9.28; as for “CTTATAAAAAAAATTGCACACATATTATACAGGACG [CACACA_site8133]”, 9.73; as for “ATAACTTTCTATACATGTACACATATATGGTATTTT [XGTACX_site7535]”, 9.57.
The same measure for “ATAAATTTTTTATGAACACACAAATACACCCACTCA [CACACA_site5465]”: 9.73; for “TGTATATATTTTAATAGTACTCATATATATATATAT [XGTACX_site7216]”: 9.23.
Consider “ATTGTGTTGACGGGTGACCCTTCCAGAGAAATAGAA [CACACA_negctrl_site1362]”, for which the “gcPBM binding intensity (ln)” value amounted to 9.01.
As for “TTTTTTTTAATGAGAAGTACGGTCTTTCAATGTCTT [XGTACX_site6773]”, the figure is 8.89; as for “TAAAAATTAAAACTGGGTACAAATTTATAGATAGCC [XGTACX_site8075]”, 9.62.
With “CATTAACAAATAAATGCACACATATATATAAATAAT [CACACA_site7892]”, the “gcPBM binding intensity (ln)” value amounted to 9.56.
As for “AATTTATTAGATAGATGTACATTTTAATAAAAGTAG [XGTACX_site6819]”, the figure is 9.13.
The same measure for “TCCCCTTAATTTAAAACACACAAACAAATAAGTTAG [CACACA_site5973]”: 9.27; for “ATTAATTATATATATACACACACATACACCCAAATA [CACACA_site9126]”: 10; for “TAAATACTTCGTAAAACACACAAGTAGAAAAAAAAA [CACACA_site360]”: 9.42.
In the case of “ATAATTAGTTCAATTTTTTTTTTTTTTTTTTTTTTT [CACACA_negctrl_site1371]”, the “gcPBM binding intensity (ln)” value was found to be 9.06.
The same measure for “AAAAATATAATATATGCACACATACATACATATATA [CACACA_site7915]”: 9.37.
With “TTATTTATTTATTGTTGTACACAAAATGATTCTTAA [XGTACX_site6480]”, the “gcPBM binding intensity (ln)” value was found to be 9.02.
As for “AAACAAAACAAAACATGTACACATTATATATATATA [XGTACX_site3374]”, the figure is 9.41; as for “TAATAATTACAAAGAAGTACATAAAAAAAAATTTAT [XGTACX_site4684]”, 9.22.
The same measure for “CTATATATATATTTCAGTACATATTAAGAATATATA [XGTACX_site4860]”: 9.04.
As for “TTCTAATAAATGTGTTGTACACCTTTAGCAACTATT [XGTACX_site3235]”, the figure is 9.2.
Consider “TATATAAATATATACACACATACATACATACATATA [CACACA_site3835]”, for which the “gcPBM binding intensity (ln)” value came to 9.74.
The same measure for “TATATATATTTATGCACACAAAATATATTATATAAT [CACACA_site5955]”: 9.27; for “AGGAAAAAAGAAAAAACACACATAAATATTTATATA [CACACA_site7446]”: 9.42.
As for “TATACATCATTTTTCAACAACAAAAAAAAAAAAAAT [CACACA_negctrl_site1185]”, the figure is 9.11.
As for “ACGTAAAATAGGGACGCATGCACAAATATTTTTAAA [TGCATGCA_site336]”, the figure is 9.28; as for “ATATATATAAATACAACACACATGTAATATATAAAT [CACACA_site5766]”, 9.73; as for “TAATATCATTTATGGGGTACCTCCTATTCTTATTTA [XGTACX_site1839]”, 9.19.
Turning to “CGAACTGCACTTTTTAGTACTTAATAATTATTTTTT [XGTACX_site2446]”, the “gcPBM binding intensity (ln)” value came to 9.35.
As for “TCATATGTTAAATGATGTACATTTAATATAAATAAA [XGTACX_site900]”, the figure is 9.
For “AAAAAAAACATCCTCACACATATATATATATATATA [CACACA_site5166]”, the “gcPBM binding intensity (ln)” value was 9.18.
The same measure for “AAATAAAATTATAATACATGCATACATACATATATA [TGCATGCA_site69]”: 9.19.
The same measure for “TATAAATACATACGTACACACAAATATTAAAATATA [CACACA_site5129]”: 9.67; for “ATGTTACTCAGACACACACACATAAAAAAACAAAAA [CACACA_site3249]”: 9.93; for “TGTGTTAATATATGAAGTACACAATACACACTAATT [XGTACX_site5469]”: 9.62.
The same measure for “TAAATTACATGAAATTGTACATGAATATTAAATATA [XGTACX_site3909]”: 9.05; for “TTCGTTATAATTGAATTTACAATATGCTTTATAATG [XGTACX_negctrl_site238]”: 9.19.
As for “ATATATACAAAGGATTAACACACATATTATTATATA [CACACA_site8563]”, the “gcPBM binding intensity (ln)” value was found to be 9.55.
The same measure for “AAAATATTTATATTTACACACACATAATACATATAT [CACACA_site32]”: 9.87; for “GTGTACAGTTTTTGCACACATATAAATAAAAAAAAG [CACACA_site3599]”: 9.45.
As for “AATAAAGGAAATAAATAATTTATTTTGTAAAATATG [CACACA_negctrl_site97]”, the figure is 9; as for “ATATATATGAATACATGTACGTATTTGTCTATGTAT [XGTACX_site8306]”, 9.38.
The same measure for “CAATGTTAACATATTACACACATATGTATTTATAAT [CACACA_site5512]”: 9.58; for “GCATATATTATATATTTATTTATTTTTTTTTTTTAA [GTGCAC_negctrl_site193]”: 9.13; for “TTTATAAAATTATTTGCATGTAACAATTATAAATTG [TGCATGCA_site1026]”: 8.94.
Consider “TTTTTTTTTCTTTCTCTTTAAATATTAATTAAAAAA [GTGCAC_negctrl_site90]”, for which the “gcPBM binding intensity (ln)” value turned out to be 8.93.
As for “AATGTGAAATATAAATGTACATAAATATATATATAT [XGTACX_site8710]”, the figure is 9.54.
As for “AAAATATAAATATATTGTACTGTTATATAATAAAAT [XGTACX_site2132]”, the figure is 9.21; as for “TAACTATCATGTATTACACACAATATTTATTATAGA [CACACA_site7301]”, 9.45.
The same measure for “TACATATTTTTTATGTGTACATATTTTTTATGTGTG [XGTACX_site444]”: 9.15; for “TTCTTTTTTCTTTATGGTACGTGTAATATATATCAA [XGTACX_site7960]”: 9.47.
In the case of “CCCAATAATTAAACAACACACATATATATATGTAAT [CACACA_site3084]”, the “gcPBM binding intensity (ln)” value came to 9.66.
As for “ATAAAATACAGATAAACACACATATAAACACCCATA [CACACA_site5381]”, the figure is 9.92; as for “CTTTATTTTTTATACACACACAATATGTATAAATAT [CACACA_site7638]”, 9.73; as for “ATAAATAAATACATATGTACATATATATATATATAT [XGTACX_site7145]”, 9.17.
The same measure for “TCAGTTAATGTATATGTACACACGGGGTGTATATAT [CACACA_site9103]”: 9.49.
